Test [1] addresses SOD-1 (apo-enzyme monomers assembling into fibers). Kind of test: cell-based or functional assay.
Test [2] addresses T1, amyloid-β 1-42 fibers (fAβ42) (human, UniProt P05067 in part).
T1 construct: domain: amyloid-β 1-42; also called Aβ fibrils; Aβ fibers
Briefly: SPR on Aβ fibrils, 25° C.

In another test the target is tau fibers (ftau). Briefly: SPR, MTBR surface (~2000RU), Construct 6 2.5 µM in HBS pH=7.5, 10 µL/min. On the technique in general: SPR reads the build-up and loss of mass on a sensor chip optically.

What is called Kd is the concentration at which binding is half-saturated. A low value points to higher affinity. Broadly, the koff is a measure of how fast the partners let go of each other. Read a low koff as slow dissociation. What is called kon is the rate constant with which the complex forms.

T1 sequence (P05067 672-713 limits assumed): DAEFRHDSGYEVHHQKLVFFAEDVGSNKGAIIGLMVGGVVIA

B1: rs-g3p(N1N2)-hIgG1-Fc fusion protein (Construct 6) (Fc fusion)
chain: ETVESCLAKPHTENSFTNVWKDDKTLDRYANYEGCLWNATGVVVCTGDETQCYGTWVPIGLAIPENEGGGSEGGGSEGGGSEGGGTKPPEYGDTPIPGYTYINPLDGTYPPGTEQNPANPNPSLEESQPLNTFMFQNNRFRNRQGALTVYTGTFTQGTDPVKTYYQYTPVSSKAMYDAYWNGKFRDCAFHSGFNEDPFVCEYQGQSSDLPQPPVNAGGGSGGGSGGGSEGGGSEGGGSEGGGSEGGGSGGGSGSGAMVRS[human IgG1 Fc not shown]
notes: also called N1N2-IgG1Fc fusion protein; IgG1Fc-g3p(N1N2)
Take B1: in test [1], the “IC50 of inhibition of SOD-1 fiber formation, ThT fluorescence” value was approximately 750 nM. In test [2], this molecule gave a Kd of 9.2 nM, a koff of 0.000158 s⁻¹ and a kon of 17100 M⁻¹ s⁻¹. In the test with tau fibers (ftau), the Kd is 75.1 nM, the koff came to 0.000641 s⁻¹ and the kon was determined as 8540 M⁻¹ s⁻¹.

Values taken from patent publication US20170305975A1 (PROCLARA BIOSCIENCES, published 2017).
